Laboratory results published in PubChem BioAssay AID540317 (National Center for Advancing Translational Sciences (NCATS), 2011).
Screen size: about 390,000 compounds; about 2,200 (0.56%) were called active. Inconclusive results, whose numbers are uncertain, are shown with a selection of clear calls. Calls follow the shape of the dose curve; as a rule, active = well fitted inhibition curve with a large enough effect; inconclusive = small, poorly fitted or top-dose-only effect; inactive = no such curve, though single readings can be large or run the other way. Potencies of inconclusive entries are doubtful fits and often do not repeat.

Target: Chromobox protein homolog 1 (Homo sapiens) (UniProt P83916)
Chain of UniProt P83916 (P83916 whole entry, looked up): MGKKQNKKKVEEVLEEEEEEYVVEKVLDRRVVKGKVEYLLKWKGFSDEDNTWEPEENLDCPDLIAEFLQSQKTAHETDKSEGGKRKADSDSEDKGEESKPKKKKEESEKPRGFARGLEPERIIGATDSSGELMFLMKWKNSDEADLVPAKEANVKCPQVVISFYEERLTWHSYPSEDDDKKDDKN
Test: HTS for Inhibitors of HP1-beta Chromodomain Interactions with Methylated Histone Tails; also: nearly all actives have a fitted effect of over 70% in size
Conditions: AlphaScreen HP1-beta / biotin-H3K9me3 peptide binding; series mostly up to 114 µM
Summary of the method: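 AlphaScreen: HP1-beta (50 nM) preformed 30 min with biotin-H3(1-18)K9me3 peptide (50 nM) in PBS pH 7.4, 0.01% Tween-20. Compound added for 30 min at RT, then streptavidin donor/nickel chelate acceptor beads (10 ug/mL) for 30 min.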
Potency is read from the fitted curve at half-maximal effect; tags tell the direction and shape of the fitted curve.

Question: With `Cc1ccc(S(=O)(=O)N/N=C2/CCCCC2C2CCCCC2)cc1[N+](=O)[O-]` (stereo not drawn) as the compound, how does the Potency read?
Answer: inconclusive: 39.8 µM [inhibitor, single point]

Question: `CC(C)(C)c1ccc(-c2nc3cc(NC(=O)c4cccc(Br)c4)ccc3o2)cc1` was tested. Which Potency did it give?
Answer: inactive

Question: With `Cc1cc(OCCCCNC(C)C)cc(C(C)C)c1` as the compound, how does the Potency read?
Answer: inconclusive: 56.2 µM [inhibitor, partial curve, poor fit]

Question: `Cc1cc(C(=O)Nc2nnc(C(F)(F)F)s2)cs1` was tested. Which Potency did it give?
Answer: inactive

Question: Which Potency does the source give for `C=CCc1cc(Cl)ccc1OCCOCCN(C)C` here?
Answer: inconclusive: 50.1 µM [inhibitor, partial curve, poor fit]

Question: For `Cc1ccc(/C=C2/C(=O)ON=C2c2ccccc2)o1`, which Potency is on record?
Answer: inconclusive: 20 µM [inhibitor, full curve]

Question: `CC(C)(C)C(=O)c1sc(Nc2ccccc2)nc1N` was tested. Which Potency did it give?
Answer: inconclusive: 50.1 µM [inhibitor, partial curve]

Question: `Cc1ccc(/C=N/N2CCN(Cc3cccc4ccccc34)CC2)o1` was tested. Which Potency did it give?
Answer: inconclusive: 44.7 µM [inhibitor, partial curve]

Question: `Cc1ccc(-n2c(=O)[nH]c3c(C(N)=O)nc(-c4ccc(C)o4)nc32)cc1` was tested. Which Potency did it give?
Answer: inactive

Question: With `C[C@H]1CCC/C=C/[C@@H]2C[C@H](O)C[C@H]2[C@H](O)[C@H](S(=O)c2ccc(O)cc2)CC(=O)O1` (stereo partly drawn) as the compound, how does the Potency read?
Answer: inconclusive: 25.1 µM [inhibitor, full curve]

Question: How did the Potency turn out when `Cc1ccc(OCCCCn2ccnc2C)c(C)c1` was run?
Answer: inconclusive: 39.8 µM [inhibitor, partial curve, poor fit]

Question: Which Potency does the source give for `CCCC(=O)Nc1ccc(Nc2ccccc2)cc1` here?
Answer: inconclusive: 39.8 µM [inhibitor, partial curve, poor fit]

Question: `NC(=O)C1CCN(C2=C(NS(=O)(=O)c3ccc(Br)cc3)C(=O)c3ccccc3C2=O)CC1` was tested. Which Potency did it give?
Answer: inconclusive: 35.5 µM [inhibitor, partial curve]

Question: How did the Potency turn out when `CC1CN2C(c3ccc([N+](=O)[O-])cc3)=CSC2=N1` (stereo not drawn) was run?
Answer: inconclusive: 89.1 µM [inhibitor, single point]

Question: Which Potency does the source give for `O=c1c2ccccc2nnn1CSc1nc2cc(Cl)ccc2c(=O)n1Cc1ccco1` here?
Answer: inconclusive: 6.31 µM [inhibitor, full curve, poor fit]

Question: `COC(=O)N1C(=O)[C@@](Cc2ccccc2)(c2ccccc2)N1C(=O)OC` was tested. Which Potency did it give?
Answer: inactive

Question: How did the Potency turn out when `CCCc1ccc(C2Sc3ccccc3NC3=C2C(=O)c2ccccc23)cc1` (stereo not drawn) was run?
Answer: inconclusive: 12.6 µM [inhibitor, full curve, poor fit]

Question: Which Potency does the source give for `COc1nc(-c2ccccc2)cc(-c2ccccc2)n1` here?
Answer: inactive

Question: `CC1CC(=O)N(c2ccc(NCCc3ccc(O)cc3)c([N+](=O)[O-])c2)C1=O` (stereo not drawn) was tested. Which Potency did it give?
Answer: inconclusive: 44.7 µM [inhibitor, partial curve]

Question: With `Cn1c(-c2ccc3c(c2)OCO3)cnc1NCc1ccc(Cl)cc1` as the compound, how does the Potency read?
Answer: inconclusive: 70.8 µM [inhibitor, partial curve, poor fit]

Question: Which Potency does the source give for `CCC(C)[C@H](NC(=O)NCc1ccccc1Cl)C(=O)OC` (stereo partly drawn) here?
Answer: inconclusive: 79.4 µM [inhibitor, partial curve, poor fit]

Question: Which Potency does the source give for `COc1ccc(OC)c(CCNC(=O)c2ccc3c(=O)[nH]c4c(C(=O)NC(C)C)sc(=S)n4c3c2)c1` here?
Answer: inconclusive: 35.5 µM [inhibitor, partial curve]

Question: Which Potency does the source give for `Cc1cccc(N(C)S(=O)(=O)c2ccc3c(c2)C(C)(C)C(=O)N3C)c1` here?
Answer: inconclusive: 39.8 µM [inhibitor, partial curve, poor fit]

Question: How did the Potency turn out when `Cc1cc(C(=O)CNCc2ccco2)c(C)n1-c1ccc(F)cc1` was run?
Answer: inconclusive: 56.2 µM [inhibitor, partial curve]

Question: How did the Potency turn out when `Cc1ccc(NC(=O)/C=C/c2ccc(C)o2)c(C)c1` was run?
Answer: inconclusive: 39.8 µM [inhibitor, partial curve, poor fit]

Question: Which Potency does the source give for `Clc1ccccc1CN1CCN(c2ncccn2)CC1` here?
Answer: inconclusive: 56.2 µM [inhibitor, single point]

Question: `C=CCn1cccc(C(=O)Nc2ccc(N(C)C)cc2)c1=O` was tested. Which Potency did it give?
Answer: inactive

Question: How did the Potency turn out when `COCCn1c(SCCN2CCCCC2)nc2ccccc2c1=O` was run?
Answer: inconclusive: 25.1 µM [inhibitor, partial curve]

Question: With `CC(C)Cn1c(N)c(C(=O)COC(=O)c2cc(-c3ccco3)nc3ccccc23)c(=O)n(C)c1=O` as the compound, how does the Potency read?
Answer: inconclusive: 14.1 µM [inhibitor, full curve]

Question: How did the Potency turn out when `OC(COc1ccc(Cl)c2ccccc12)CN1CCN(c2ccccn2)CC1` (stereo not drawn) was run?
Answer: inconclusive: 44.7 µM [inhibitor, partial curve, poor fit]

Question: How did the Potency turn out when `COc1ccc(C2C(=O)N(C3CCCCCC3)CC(=O)N2Cc2ccc(C)cc2)cc1OC` (stereo not drawn) was run?
Answer: inconclusive: 89.1 µM [inhibitor, single point]

Question: How did the Potency turn out when `COc1ccccc1C(=O)NCCCNC(=O)c1cnccn1` was run?
Answer: inactive

Question: Which Potency does the source give for `Cc1ccc(C(C)(C)C)c(OCCCn2ccnc2)c1` here?
Answer: inconclusive: 50.1 µM [inhibitor, partial curve, poor fit]

Question: With `CN(c1ccc(C(=O)Nc2ccccc2C(=O)N2CCOCC2)cc1)S(C)(=O)=O` as the compound, how does the Potency read?
Answer: inactive

Question: How did the Potency turn out when `O=C(c1cccc(S(=O)(=O)N2CCN(c3ccccc3)CC2)c1)N1CCCCCCC1` was run?
Answer: inactive

Question: `Cc1ccc(CN2C(=O)C(O)(c3c[nH]c4ccccc34)c3cc(Cl)ccc32)cc1` (stereo not drawn) was tested. Which Potency did it give?
Answer: inactive

Question: How did the Potency turn out when `CCOC(=O)c1c(-c2ccccc2)csc1NC(=O)/C(C#N)=C/c1ccc(O)c(OC)c1` was run?
Answer: inconclusive: 50.1 µM [inhibitor, partial curve]

Question: How did the Potency turn out when `O=C(c1ccoc1)N1CCC2(CCCN(Cc3ccc(F)c(F)c3)C2)C1` (stereo not drawn) was run?
Answer: inactive

Question: Which Potency does the source give for `COCCN1C(=O)c2oc3ccccc3c(=O)c2C1c1ccc(OC)c(OC)c1` (stereo not drawn) here?
Answer: inconclusive: 44.7 µM [inhibitor, partial curve]

Question: Which Potency does the source give for `O=C(Cc1cccc2ccccc12)NCC(=O)Nc1ccccc1F` here?
Answer: inactive

Question: For `COc1cccc(-n2ccnc2SCC(=O)Nc2ccccc2F)c1`, which Potency is on record?
Answer: inconclusive: 39.8 µM [inhibitor, partial curve]

Question: With `Cc1ccc(-c2nc3ccccn3c2Nc2ccc3c(c2)OCO3)cc1` as the compound, how does the Potency read?
Answer: inconclusive: 20 µM [inhibitor, full curve]

Question: With `Cc1ccc(O)c(C(=O)c2cnc3onc(-c4ccc(F)cc4)c3c2)c1` as the compound, how does the Potency read?
Answer: inconclusive: 25.1 µM [inhibitor, single point]
